Reference: publication PMC6212790
The list shows a part of the results. At the low end of the ranking the order means little.

Target: T1, GST-Rok-C97-191 (UniProt O34857)
T1 sequence: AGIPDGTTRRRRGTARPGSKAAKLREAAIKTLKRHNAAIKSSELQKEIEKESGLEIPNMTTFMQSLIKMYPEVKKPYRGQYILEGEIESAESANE
Assay: protein binding microarray;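 note: rank score from −0.5 (least bound) to 0.5 (best bound)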
Conditions: Rok is a gene silencer of Bacillus subtilis; high values mean tight binding; most listed sequences are background and not binding sites; double strand, one strand shown

Sequence	binding signal [E-score]
ATGTTCAA	-0.0211
ATAGATCA	0.217
ATTAGGGC	-0.073
ATGTATAA	0.364
ACATCCAT	0.163
CCTACGTA	-0.0162
GATCATAC	0.212
ACGCATTG	-0.00648
TCTCAGAA	-0.107
GGGAACTA	0.0986
ACACTACC	-0.0628
ATGTGGCC	-0.0945
CACTGCTG	-0.0892
CAATGCCG	-0.141
GATCGGAC	-0.119
ACCCTCTC	-0.294
CGAAGCAG	-0.238
GGATTATA	0.0636
AGAGCCCG	-0.188
ATAATGTC	0.112
CCGTTGTA	0.155
ATAAAGAG	-0.176
ACAAGTCT	-0.182
CAGAGAGG	-0.134
AAACACGG	0.0678

Sequence	binding signal [E-score]
AGGTAAGG	-0.181
ATTCTAAA	0.222
AGTCGCAC	-0.126
GATTATCA	0.135
AAACAGAC	-0.0177
ATTTGTGC	-0.173
AGGGATCC	-0.161
ATGCTCCA	0.0226
CGACCTGC	-0.174
AACCGAAC	0.112
GTACGCCA	-0.0805
CAACTGCC	-0.153
CCCGACCG	-0.321
ACACGTCA	-0.0692
AGCAACAC	0.0251
ACGGTGCG	-0.12
ATACATGC	0.219
AGGCAAGC	-0.149
CCCGCGAA	-0.0413
CCAGCTGG	-0.132
GACGGACA	-0.0313
GTAACTAA	0.353
ATTATTTA	0.37
ACGTCGGA	0.0482
GAACTGGC	-0.0949

Sequence	binding signal [E-score]
ATGTTAGC	0.164
CTCTAGTC	0.171
GATAGCGC	0.191
ATTGATCC	0.169
CATCTTTA	0.057
TATCCACA	0.0065
GAAAACAC	0.0552
AAGGCAGT	0.166
CTACATGA	0.283
ATACAAGG	-0.00241
GCCGCTAC	0.199
AGTGTGAT	0.0321
CCGAGCCC	-0.455
AGGCACAT	-0.0618
GTGTACCA	0.0271
AGAAAAAA	0.111
AAAGCTAA	0.0397
CACGGCCA	-0.119
CACAGATA	0.161
TAGCCTAA	-0.0305
TTATCGAA	0.103
GACTGCGA	-0.0419
GGAACTGA	0.0662
ACAGGATA	-0.0469
ATCTCCTG	-0.0812

Sequence	binding signal [E-score]
CGGGCCAC	-0.146
CGCGGACG	-0.207
ACGAGGGG	-0.235
ATTGACAA	-0.116
CAAGTGAG	0.02
GCTTGGCC	-0.411
GTAATGGA	0.14
ATAAAATC	0.28
ACTCATTA	-0.0882
CAATGCTA	0.195
CACCGAAG	-0.119
GAATCGCA	-0.139
AGCTCGAC	-0.106
ATGGGGGG	-0.432
AAGTGTAC	0.116
ACCTACGA	0.049
CTCCTAAG	0.0928
GAGAGTGC	-0.103
CGCACATA	0.0511
CGACTCCC	-0.342
TAGGCCGA	-0.0449
AGACGCAC	-0.229
ACATTGGT	-0.0259
CGAAAAAA	-0.0363
ATTGTCTA	0.205

Sequence	binding signal [E-score]
AATAATGA	0.0696
GGCTCAAA	-0.122
AGACTTAT	0.146
CAGTCCAA	0.000691
GAGGAAGA	0.127
GGCGCCGA	-0.077
ATCCACGC	-0.0769
CCTATAAC	0.236
CACAGAAC	-0.0764
ATAGCAAT	0.19
GCGCACAC	-0.245
TAAGCTGA	-0.117
ACCAGCTG	0.00621
AAGTGGAA	-0.0578
GGTATCTA	0.23
ATGATCGG	-0.11
CTGCAGGC	-0.199
CTCCGGAA	0.00646
TGACTCCA	-0.0987
GATCTTCA	-0.00463
GCGGACTA	0.0993
AATGCGCC	-0.0562
AGCTGATA	0.181
CGATACCG	0.13
CACAGCTC	-0.152

Sequence	binding signal [E-score]
GGTAAGGA	-0.00191
CGACATGA	0.149
AAGGTTTG	0.0596
TACAACTA	0.338
ATATGAAT	-0.0404
CATTCAAA	-0.055
CCCGGGTA	-0.0896
ACTTTAAT	0.104
GAAGGGGA	-0.234
ACGTGTTA	0.0556
CCGAAGGA	-0.172
TAGTATGA	0.25
CAAGGAGC	-0.312
CTCACAGC	-0.264
ATATTAAT	0.307
AAGTCTCC	-0.296
GAAGCATC	-0.134
CACAAGAC	-0.188
TGATCCAA	-0.0389
CGTACGAA	-0.0107
AATCGCTA	0.111
ACGAATCG	-0.151
AAAATGTA	0.316
ACACAAAC	0.131
CATGCTAA	0.084

Sequence	binding signal [E-score]
CTCTTCAA	-0.0669
AAGCTTGT	0.109
AGGGATAA	0.0979
AACATCGA	0.134
GTTACAGA	0.21
GGGACCGA	-0.184
AATTTGGG	-0.101
GCCGGCAC	-0.227
ACTCGGCA	-0.122
ACTGACAT	-0.113
CGGCTCTA	0.00628
CCACACCG	0.0146
AATTCATG	0.131
AGACTCCT	-0.067
CAGTGTGC	-0.172
CCACTGTA	0.137
CCAACCAC	-0.176
ATAGCGTA	0.195
GACCCAGC	-0.165
CATATGAC	-0.0112
ACCCCATG	-0.199
GCGGCCTA	-0.313
